# Results reported in PubChem BioAssay AID1508624 (National Center for Advancing Translational Sciences (NCATS), 2021).
# Hit rate of the full screen: of about 48,000 compounds, about 120 (0.25%) were called active. About 4% were inconclusive and are not listed. The call rests on the fitted dose curve; in most records, active means well fitted activation curve with a large enough effect; inconclusive means small, poorly fitted or top-dose-only effect, or another doubt; inactive means no such curve, though single readings can be large or run the other way. Some of the results follow.
# Assay: Primary qHTS for Identification of Small Molecule Activators of Huntingtin-Antisense Promoter Activity; further: nearly all actives have a fitted effect of over 55% in size
# Details: HEK293 HTT-AS promoter firefly luciferase reporter, 24 h; series mostly up to 57.5 µM; activity change, positive = activation: at the top concentration
# Method in brief: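 Firefly luciferase readout (Dual-Glo, 10 min RT) after 24 h, 37 °C compound exposure (final up to 57.5 uM) of HEK293 reporter cells cultured 24 h beforehand; PTC124 at 50 uM final as control inhibitor; activity scaled vehicle 0%, zero RLU -100%.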
row,Structure (SMILES),"activity change, positive = activation"
1,O=c1c2c3c(sc2n(Cc2ccc(F)cc2Cl)c(=O)n1-c1ccc(Cl)cc1)CCC3,inactive: 7.99%
2,COc1cccc(CN(C(=O)c2cccc(C)c2)C2CCS(=O)(=O)C2)c1 (stereo not given),inactive: -12%
3,CC(=O)c1ccc(NC(=O)Cn2nc(C(F)(F)F)c3c2CCCC3)cc1,inactive: -19.1%
4,COc1ccc(OC)c(-c2noc(N3CCN(c4cccc(C)c4C)CC3)n2)c1,inactive: -32.7%
5,CCSc1nn(CC(=O)Nc2cccc(Cl)c2)c(N)c1S(=O)(=O)c1ccc(OC)cc1,inactive: -28.7%
6,CC(N[C@H]1CCCC[C@H]1NC(=O)c1ccc(Cl)cc1)c1cccc2ccccc12 (stereo not given in full),inactive: -26.2%
7,CCc1ccc(NC(=O)Cn2c(=O)n(-c3cc(C)cc(C)c3)c(=O)c3oc4ccccc4c32)cc1,inactive: -21.3%
8,COC(=O)c1ccccc1NC(=O)C1=C(C)C(=O)OC12CCC(C)CC2 (stereo not given),inactive: -18%
9,Cc1ccc(CSc2oc(-c3cccs3)nc2S(=O)(=O)c2ccc(C)cc2)cc1,inactive: -2.61%
10,COC(=O)CC1Oc2ccc(C)cc2-n2cc(-c3ccc(C)cc3)nc21 (stereo not given),inactive: -24.6%
11,Cc1ccc(-n2nc3c(=O)n(CCCC(=O)NC(C)c4ccccc4)nc(C)c3c2C)cc1 (stereo not given),inactive: 3.57%
12,CC(C)CC(=O)Nc1nnc(S(=O)(=O)N2CCc3ccccc32)s1,inactive: -13.7%
13,Cc1ccc2oc(C(=O)Nc3sc4c(c3C(=O)NCc3cccnc3)CCCC4)cc(=O)c2c1,"inactive: 6.67% [at 11.5 µM, percent change from vehicle, -100% = no light]"
14,CCCN(CCC)C(=O)Cn1c(=O)n(Cc2ccc(C(=O)NCCc3ccc(Cl)cc3)cc2)c(=O)c2ccccc21,inactive: -19.7%
15,COc1ccccc1Cn1cc(C(=O)c2ccc(C)cc2)c(=O)c2cc(F)cc(F)c21,inactive: -6.7%
16,CCc1cccc(NC(=O)Cn2nc3c4cc(F)ccc4n(Cc4cccc(C)c4)cc-3c2=O)c1,inactive: -13.7%
17,CCc1ccccc1N1C(=O)N(CC(=O)c2ccc(OC)cc2)c2ccccc2S1(=O)=O,inactive: -26.4%
18,CC(C)Oc1ccc(C(=O)Nc2nonc2-c2ccc(OC(C)C)cc2)cc1,inactive: -3.06%
19,COC(=O)CCN(C(=O)C1CCN(S(=O)(=O)c2c(C)noc2/C=C/c2ccccc2F)CC1)c1ccccc1,inactive: -1.89%
20,CCCNC(=O)c1cnc2c(-c3ccc(OCC)c(OCC)c3)c(C)nn2c1-c1ccccc1,inactive: -27.6%
21,COc1cc(NC(=O)CC(c2cccs2)N2Cc3ccccc3C2=O)cc(OC)c1OC (stereo not given),inactive: -13.4%
22,CCN(CCCNC(=O)Cn1ncc2c([nH]c3ccc(C)cc32)c1=O)Cc1ccccc1,inactive: -9.61%
23,CC(C)n1c(=N)c(C(=O)NC2CCCCC2)cc2c(=O)n3ccccc3nc21,inactive: 0%
24,Clc1cccc(CSc2nnc(C3CCNCC3)o2)c1,inactive: 2.18%
25,Cc1cccc(CNC(=O)c2cnc3sc(N4CCCCCC4)nn3c2=O)c1,inactive: -10.9%
26,COc1ccc(-c2nsc(NC(=O)c3oc4cc(C)c(C)cc4c3C)n2)cc1,inactive: -8.82%
27,Cc1ccc(N(Cc2cccs2)C(=O)COc2cccc(C)c2)cc1,inactive: -27.9%
28,CC(=O)c1ccc(NC(=O)Cn2c(=O)n(Cc3ccco3)c(=O)c3sc4ccccc4c32)cc1,inactive: -14.4%

row,Structure (SMILES),"activity change, positive = activation"
1,Cc1nn2c(=O)cc(COC(=O)CNC(=O)c3ccc(F)cc3)nc2s1,inactive: -4.64%
2,COc1ccc(C2=NC(C)(C)N(CC(=O)Nc3ccc(F)c(F)c3)C2=O)cc1,inactive: -25.1%
3,CCN1CCN(c2cc(C)c3cc(NC(=O)c4cc(Cl)ccc4OC)ccc3n2)CC1,inactive: -8.98%
4,Cc1ccc(-n2ncc(C(=O)NCCCN3CCCCC3)c2C2CCN(C(=O)OC(C)(C)C)CC2)cc1,inactive: -21.4%
5,COc1cccc(OC)c1C(=O)Nc1ccc(S(=O)(=O)Nc2nccc(C)n2)cc1,"inactive: -5.58% [at 11.5 µM, percent change from vehicle, -100% = no light]"
6,CCOC(=O)c1c(C)n(-c2ccccc2)c2ccc(OC(=O)c3ccccc3NC(=O)C(C)(C)C)cc12,inactive: -66.3%
7,Cc1ccc(NC(=O)c2c(C)nc3sc(C(=O)Nc4ccc(F)cc4)c(N)c3c2-c2ccccc2Cl)c(C)c1,inactive: 0%
8,COc1ccccc1NS(=O)(=O)c1cc2c(cc1Cl)NC(=O)CO2,inactive: -24.2%
9,O=C1CN(C(=O)Nc2ccccc2C(F)(F)F)C(c2ccccc2)c2c(sc3c2CCCC3)N1 (stereo not given),inactive: -40.3%
10,CCOc1ccc(CCNC(=O)CSc2cc(=O)n(C)c3ccc(Cl)cc23)cc1OCC,inactive: -19.1%
11,CCCc1cnc2c(c1SCc1ccc(C(F)(F)F)cc1)c(=O)n(C)c(=O)n2C,inactive: -35.6%
12,CC(C)Oc1ccc(CNC(=O)c2ccc(Cn3c(=O)c4cccn4c4cccnc43)cc2)cc1,inactive: -9.13%
13,CCN1C(=O)C2(c3ccccc31)c1c(oc3ccc(F)cc3c1=O)C(=O)N2CCCOC (stereo not given),inactive: -12.8%
14,Cc1ccc(NC(=O)CSc2ccc(-c3sc(-c4ccccc4)nc3C)nn2)cc1F,inactive: -1.92%
15,Cc1cccc(N2CCN(C(=O)CCSCc3ccccc3F)CC2)c1C,inactive: 14%
16,COc1ccccc1N1CCN(C(=O)Cn2ncc3c(=O)oc4ccc(C)cc4c32)CC1,inactive: -8.79%
17,CN(C)S(=O)(=O)c1ccc(C(=O)Nc2ccc(-n3nncc3-c3ccccc3)cc2)cc1,inactive: -20.4%
18,CCOc1ccc(S(=O)(=O)N(CC(=O)NCCc2ccc(OC)c(OC)c2)c2ccccc2)cc1,inactive: -46.1%
19,COc1ccc(NC(=O)CN2C(=O)CSc3ccc(S(=O)(=O)N4CCCC4)cc32)cc1OC,inactive: 0%
20,Cc1ccccc1Cn1c(CN2CCC(C(=O)NCCN(C)C)CC2)cc2ccccc21,inactive: -11.8%
21,Cc1ccccc1NC(=O)CN1C(=O)C(C)(C)c2ccccc21,"inactive: 6.87% [at 11.5 µM, percent change from vehicle, -100% = no light]"
22,COc1cccc(NC(=O)c2cc3c(=O)n(C)c4ccccc4c3n2C)c1,inactive: 1.88%
23,CCCCNC(=O)c1cnn2c(C)c(Cc3c(F)cccc3Cl)c(C)nc12,inactive: 0%
24,O=C1c2c(O)cccc2[C@@H]([C@@H]2O[C@H](CO)[C@@H](O)[C@H](O)[C@H]2O)c2cc(CO)cc(O)c21,inactive: -9.73%
25,COc1ccc(OC)c(CCNC(=O)c2c(C)oc3ncn(C)c(=O)c23)c1,inactive: -1.16%
26,Cc1cccc(C)c1NC(=O)Cn1c(=O)n(CCC(=O)NCc2ccccc2Cl)c(=O)c2sccc21,inactive: 4.47%
27,O=C(O)c1cc(-c2ccc(C(F)(F)F)cc2)nc2n[nH]c(-c3ccccc3)c12,inactive: 20.1%
